Common to all, as to experiment: Primary Screen for Target Class Profiling of Small Molecule Inhibitors of Methyltransferases
Assay [1] has as its target Glycine N-methyltransferase (Homo sapiens) (UniProt Q14749). To be noted: purified enzyme, MTase-Glo SAH luminescence; measured here: GNMT inhibition; at 40 µM; stronger effect = lower value. A digest of the protocol:
(§1)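 Each enzyme was reacted with SAM and its substrate, with compounds tested once at 40 uM; SAH formed was read by MTase-Glo luminescence.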

The target in assay [2] is Guanidinoacetate N-methyltransferase (Homo sapiens) (UniProt Q14353). To be noted: purified enzyme, MTase-Glo SAH luminescence; measured here: GAMT inhibition; at 40 µM; stronger effect = lower value. A digest of the protocol: as §1
The target in assay [3] is Histamine N-methyltransferase (Homo sapiens) (UniProt P50135). To be noted: purified enzyme, MTase-Glo SAH luminescence; measured here: HNMT inhibition; at 40 µM; stronger effect = lower value. Put shortly: as §1
The target of assay [4] is Nicotinamide N-methyltransferase (Homo sapiens) (UniProt P40261). To be noted: purified enzyme, MTase-Glo SAH luminescence; measured here: NNMT inhibition; at 40 µM; stronger effect = lower value. A digest of the protocol:
as §1

Assay [5] has as its target Phenylethanolamine N-methyltransferase (Homo sapiens) (UniProt P11086). The settings on record: purified enzyme, MTase-Glo SAH luminescence; measured here: PNMT inhibition; at 40 µM; stronger effect = lower value. Put shortly: as §1

The list shows a part of the results. Shown are side measurements of this screen, not its main read-out; they come without a call.
% is set by controls: 0 for no effect and ±100 for the full control effect.

In the case of `O=C(NCc1ccc(Cl)s1)C1CCCN(C2CCN(C(=O)C3CC3)CC2)C1` (configuration not stated), the activity change, negative = inhibition in assay [1] is -8.53%; in assay [2], -12.1%; in assay [3] it was -8.95%; in assay [4], -14.5%; in assay [5] it was -12.7%.
The corresponding values for `CCc1ccccc1NC(=O)CSc1nnc2[nH]c(=O)c(C)nn12` are 13.2%, 0%, 9.07%, 0.558% and 3.04%.
The corresponding values for `O=C([C@H]1C[C@H](Oc2cccnc2)CN1C(=O)Nc1ccccc1)N1CCOCC1` are -2.27%, -1.72%, -0.555%, -1.12% and 3.59%.
As for `C=CCNC(=O)N[C@H]1C[C@@H](C(=O)N[C@H](Cc2c[nH]c3ccccc23)C(N)=O)N(C(=O)c2cccn2C)C1`, the activity change, negative = inhibition in assay [1] was -1.23%; in assay [2] it was 2.26%; in assay [3] it was -1.33%; in assay [4], 4.03%; in assay [5], 4.5%.
With `COC(=O)[C@H](OC(C)=O)[C@H]1C(C)(C)C(=O)[C@H]2CC3=C4CC(=O)O[C@@H](c5ccoc5)[C@]4(C)CCC3[C@@]1(C)C2=O` (some centres not stated), the activity change, negative = inhibition was 2.75% in assay [1]; -2.26% in assay [2]; 7.87% in assay [3]; -12.3% in assay [4]; 1.49% in assay [5].
The corresponding values for `CCCn1c(=O)c2ccc(Cl)cc2n2c(=O)n(CC(=O)c3cc(C)ccc3C)nc12` are -3.89%, -1.74%, 0.224%, -2.52% and -1.42%.
With `Cc1cccc(S(=O)(=O)N2CCCC(Cn3cc(CO)nn3)C2)c1` (configuration not stated), the activity change, negative = inhibition in assay [1] was -3.35%; in assay [2], -6.41%; in assay [3], 1.8%; in assay [4] it was -3.01%; in assay [5], -1.51%.
For `CC1(C(=O)NC2CCCCCCC2)Cc2ccccc2C(=O)N1CCc1ccccc1` (configuration not stated) the same measures were -4.42%, 0%, 4.29%, 3.4% and -1.57%.
For `COCc1ccccc1-c1cn(C)c(=O)n2cc(COc3ccc(Cl)cc3)nc12` the same measures were -4.28%, -1.97%, -0.262%, -4.99% and -3.28%.
The corresponding values for `O=C(C1CCC(=O)N(C2CCCC2)C1)N1CCN(c2nccs2)CC1` (configuration not stated) are -1.78%, -1.31%, 0.511%, -8.06% and -1.52%.
Consider `O=C(CCc1nnc2n(Cc3ccccc3Cl)c(=O)c3ccccc3n12)N1CCC(N2CCCCC2)CC1`, for which the activity change, negative = inhibition in assay [1] is -3.95%; in assay [2] it was 4.8%; in assay [3] it was -35.6%; in assay [4], 11.2%; in assay [5], 2.26%.
On to `COc1ccc2cc3n(c2c1)CC(C)(C(=O)NC1CCCCC1)N(Cc1ccccc1OC)C3=O` (configuration not stated), for which the activity change, negative = inhibition in assay [1] was 1.53%; in assay [2] it was 4.12%; in assay [3] it was 5.74%; in assay [4], -0.084%; in assay [5], -1.37%.
Consider `CCCn1c(=O)c2ccc(C(=O)NC(C)C)cc2n2c(SCC(=O)c3ccc(C)cc3)nnc12`, for which the activity change, negative = inhibition is 1.27% in assay [1]; 3.98% in assay [2]; -0.963% in assay [3]; -0.693% in assay [4]; 1.37% in assay [5].
For `Cc1cc(C)n(CCC(=O)NCC2CCN(c3cc(-c4ccc(Cl)cc4)[nH]n3)CC2)n1` the same measures were -6.61%, 3.89%, 1.78%, -9.19% and 14.2%.
The corresponding values for `CCOC(=O)C(Cc1c[nH]c2ccccc12)NC(=O)c1ccccc1Cl` (configuration not stated) are -3.08%, 1.19%, 1.74%, 0.412% and -4.37%.
For `CC1CCCCN1C(=O)Cn1c(=O)oc2cc(S(=O)(=O)N3CCCCC3)ccc21` (configuration not stated) the same measures were 5.01%, 1.32%, 8.54%, 13.2% and 2.56%.
On to `NC(=O)C(CCC(F)(F)F)N(Cc1ccc(-c2ncon2)cc1F)S(=O)(=O)c1ccc(Cl)cc1` (configuration not stated), for which the figures for the activity change, negative = inhibition in assay [1] and in assay [3] were 3.5% and 3.66%, respectively.
In the case of `COc1cccc([S+](=O)([O-])N2CCC3(C2)C(=NC2CCCCC2)NC(=O)N3c2cc(F)cc(F)c2)c1` (configuration not stated), the activity change, negative = inhibition in assay [1] was -1.44%; in assay [2], -4.32%; in assay [3], -2.87%; in assay [4], -4.01%; in assay [5], -12.8%.
The corresponding values for `CC(C)Cn1c(=O)c2ccc(C(=O)NC(C)C)cc2n2c(=O)n(CC(=O)NCc3ccccc3)nc12` are 2.36%, 0%, 3.16%, 0.184% and 2.56%.
On to `O=C(NCCN1CCOCC1)c1cc2c(Oc3ccc(NC(=O)C4(C(=O)Nc5ccc(F)cc5)CC4)cc3)ccnc2[nH]1`, for which the activity change, negative = inhibition was -1.92% in assay [1]; 5.1% in assay [2]; -6.47% in assay [3]; -19.9% in assay [4]; -5.57% in assay [5].
On to `Cc1nccn1CC1CCc2c(c3ccccc3n2C)C1=O` (configuration not stated), for which the activity change, negative = inhibition is -11.9% in assay [1]; -26.1% in assay [2]; 1.42% in assay [3]; -29.1% in assay [4]; -5.61% in assay [5].
For `CN1C(=O)c2cc(C(=O)NCc3ccccc3)nn2CC1(C)C(=O)NC1CCCCC1` (configuration not stated) the same measures were 3.47%, 4.5%, 0.79%, 5.06% and 2.87%.
The corresponding values for `Cn1cccc1C(=O)N[C@H]1C[C@@H](C(=O)O)N(C(=O)CSCC(=O)N2C[C@@H](NC(=O)c3cccn3C)C[C@H]2C(=O)O)C1` are -7.04%, -9.38%, -4.82%, -12.2% and 29.8%.
The corresponding values for `CC(=O)O[C@H]1C[C@@](O)(C(C)C)[C@@H]2[C@@H](OC(=O)c3ccc(O)cc3)CC(C)=CC[C@@]12C` are 0%, 5.74%, 11.5%, -7.73% and -1.58%.
On to `CCCn1c(=O)c2ccc(C(=O)NC3CCCCC3)cc2n2c(SCc3ccccc3)nnc12`, for which the activity change, negative = inhibition in assay [1] stood at 5.88%; in assay [2], 0%; in assay [3], 7.46%; in assay [4], 1.95%; in assay [5], 5.58%.
Regarding `CCCn1c(=O)c2ccc(Cl)cc2n2c(=O)n(CC(=O)NCc3cccc(OC)c3)nc12`, the activity change, negative = inhibition in assay [1] was -4.25%; in assay [2], 2.32%; in assay [3], -1.61%; in assay [4] it was -1.61%; in assay [5] it was -2.13%.
Consider `O=C(CC1C(=O)NCCN1Cc1cccc(Oc2ccccc2)c1)NCc1ccoc1` (configuration not stated), for which the activity change, negative = inhibition in assay [1] was -43%; in assay [2], -8.82%; in assay [3] it was -3.41%; in assay [4], -8.59%; in assay [5], -4.99%.
The corresponding values for `CC(CNC(=O)CCc1nnc2n(Cc3ccccc3Cl)c(=O)c3ccccc3n12)c1ccccc1` (configuration not stated) are -6.7%, 4.85%, 2.84%, -1.96% and -3.51%.
Turning to `CN(Cc1ccccc1)C(=O)c1cc2n(n1)CC(C)(C(=O)NC1CCCCCC1)N(C)C2=O` (configuration not stated), the activity change, negative = inhibition was 0.074% in assay [1]; 0.611% in assay [2]; -3.55% in assay [3]; 0.34% in assay [4]; -5.21% in assay [5].
The corresponding values for `COc1cccc(CNC(=O)N2Cc3c(sc4c3CCCC4)-n3cccc3C2c2cc(F)cc(F)c2)c1` (configuration not stated) are 1.44%, 0%, 4.15%, 2.25% and -11%.

(Values after PubChem BioAssay AID1745853 (National Center for Advancing Translational Sciences (NCATS), 2022).)
